{"source": "the supplement of paper PMC3334620", "note": "Over roughly 33,000 sequences, “E-score (-0.5 to 0.5)” has its median near -0.01; the highest 2% begin near 0.26. Some of the results follow."}
{"molecular_target": "Ste12 (UniProt P13574)", "assay": "PBM E-score (8-mer binding enrichment) (E-score (-0.5 to 0.5)); higher = stronger / more preferred TF binding; most listed sequences are background and not binding sites", "conditions": "protein concentration: 200 nM; construct: GST-DNA-binding domain", "outline": "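PURExpress in vitro transcription/translation supplied GST-tagged yeast transcription factors, either full-length or DNA-binding domain. Applied at about 100-200 nM to universal all-10-mer Agilent arrays double-stranded by primer extension, the bound protein was detected with fluorescent anti-GST. E-scores, modified Wilcoxon-Mann-Whitney statistics, were given by the Universal PBM Analysis Suite to ungapped eight-base words pooled with their reverse complements after masliner normalisation.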"}
{"sequence": "GCCAGAGC", "PBM E-score": -0.17}
{"sequence": "AGCCCAAA", "PBM E-score": 0.134}
{"sequence": "GGCGCAAA", "PBM E-score": 0.218}
{"sequence": "CCCGCCAA", "PBM E-score": 0.0301}
{"sequence": "AACCCGAC", "PBM E-score": 0.177}
{"sequence": "CAATCTCC", "PBM E-score": -0.00169}
{"sequence": "CCTGGTGA", "PBM E-score": -0.00979}
{"sequence": "AAGTGACT", "PBM E-score": -0.0161}
{"sequence": "CCCTGTAG", "PBM E-score": -0.0895}
{"sequence": "AGACGTCC", "PBM E-score": -0.131}
{"sequence": "ATCTGAAA", "PBM E-score": 0.364}
{"sequence": "CACCGGGG", "PBM E-score": -0.0742}
{"sequence": "GATACTGC", "PBM E-score": 0.00414}
{"sequence": "CTAATGGC", "PBM E-score": -0.0156}
{"sequence": "ATTCACTG", "PBM E-score": 0.0226}
{"sequence": "AGCGTGCA", "PBM E-score": -0.0443}
{"sequence": "ATAGGCCA", "PBM E-score": -0.117}
{"sequence": "CACTCGCA", "PBM E-score": -0.0217}
{"sequence": "AAAACTCT", "PBM E-score": -0.0402}
{"sequence": "CGGTGGGA", "PBM E-score": 0.033}
{"sequence": "CCCACAAC", "PBM E-score": -0.0103}
{"sequence": "CCGTTTTA", "PBM E-score": 0.304}
{"sequence": "CCAATTGG", "PBM E-score": -0.04}
{"sequence": "ACATAGTG", "PBM E-score": -0.0743}
{"sequence": "GACTAACC", "PBM E-score": -0.0916}
{"sequence": "GCTGCTTA", "PBM E-score": -0.116}
{"sequence": "CACTCAAC", "PBM E-score": 0.104}
{"sequence": "GGTGGATA", "PBM E-score": 0.14}
{"sequence": "TAGATAAA", "PBM E-score": 0.148}
{"sequence": "ACGAAACG", "PBM E-score": 0.31}
{"sequence": "AAACCACA", "PBM E-score": 0.188}
{"sequence": "AGAGCTTC", "PBM E-score": -0.179}
{"sequence": "AGGTCCTG", "PBM E-score": -0.121}
{"sequence": "CGCTCGAA", "PBM E-score": -0.0852}
{"sequence": "GACAAGTA", "PBM E-score": 0.0281}
{"sequence": "ACAAACCG", "PBM E-score": 0.0902}
{"sequence": "GCCTACGA", "PBM E-score": -0.059}
{"sequence": "ACCACGCC", "PBM E-score": -0.231}
{"sequence": "TCGACCGA", "PBM E-score": -0.0399}
{"sequence": "GTATCGTA", "PBM E-score": 0.0508}
{"sequence": "AACGCAAG", "PBM E-score": -0.106}
{"sequence": "CGAATAAG", "PBM E-score": 0.0673}
{"sequence": "CAACACGA", "PBM E-score": 0.0671}
{"sequence": "CAAGTCCA", "PBM E-score": -0.323}
{"sequence": "CGGCCCGA", "PBM E-score": 0.078}
{"sequence": "CAACCCCC", "PBM E-score": -0.0908}
{"sequence": "CACATTCA", "PBM E-score": 0.125}
{"sequence": "CCAAAAAC", "PBM E-score": 0.216}
{"sequence": "AGATCTCG", "PBM E-score": -0.00741}
{"sequence": "AATCAGTC", "PBM E-score": -0.0965}
{"sequence": "CAGACCGC", "PBM E-score": 0.0129}
{"sequence": "ACTATCAG", "PBM E-score": 0.172}
{"sequence": "ATGCTAGC", "PBM E-score": -0.0358}
{"sequence": "AGTACTGA", "PBM E-score": -0.0437}
{"sequence": "CAATTGGA", "PBM E-score": -0.0538}
{"sequence": "ATGGTTTC", "PBM E-score": 0.28}
{"sequence": "ACCGGGCG", "PBM E-score": 0.00867}
{"sequence": "TAAGTCAA", "PBM E-score": -0.0556}
{"sequence": "GACAATCC", "PBM E-score": 0.0451}
{"sequence": "CTTATAGA", "PBM E-score": 0.116}
{"sequence": "ACCATTGA", "PBM E-score": -0.0371}
{"sequence": "AAGCAAGA", "PBM E-score": 0.165}
{"sequence": "TTGGAAAA", "PBM E-score": 0.177}
{"sequence": "AGGCAATA", "PBM E-score": -0.0873}
{"sequence": "CTTGGGTC", "PBM E-score": -0.176}
{"sequence": "ACGGGGAT", "PBM E-score": 0.0745}
{"sequence": "AACGAATA", "PBM E-score": 0.0425}
{"sequence": "CACCCTCG", "PBM E-score": -0.0491}
{"sequence": "GCAGTAGC", "PBM E-score": -0.239}
{"sequence": "CAAACTGG", "PBM E-score": 0.0658}
{"sequence": "GAGGTCCA", "PBM E-score": -0.0294}
{"sequence": "ACGCGAGC", "PBM E-score": -0.151}
{"sequence": "AGGCGCCT", "PBM E-score": 0.116}
{"sequence": "ATGAGAAG", "PBM E-score": -0.0707}
{"sequence": "AGCTGTTG", "PBM E-score": -0.0338}
{"sequence": "TCGAGTAA", "PBM E-score": 0.0655}
{"sequence": "CCACATGG", "PBM E-score": -0.218}
{"sequence": "CACGTGTA", "PBM E-score": -0.109}
{"sequence": "GACATCTA", "PBM E-score": 0.149}
{"sequence": "AGGAGAAG", "PBM E-score": -0.133}
{"sequence": "CTTGTCAA", "PBM E-score": -0.0591}
{"sequence": "AATAATAT", "PBM E-score": 0.185}
{"sequence": "AGCCATTC", "PBM E-score": -0.0872}
{"sequence": "AGTACGAC", "PBM E-score": -0.00866}
{"sequence": "CAGCCATA", "PBM E-score": -0.00901}
{"sequence": "CACAGAAC", "PBM E-score": -0.0884}
{"sequence": "GTGTCTCA", "PBM E-score": 0.338}
{"sequence": "CTAGGGAC", "PBM E-score": -0.0587}
{"sequence": "AAGTCTGA", "PBM E-score": -0.0887}
{"sequence": "CGAGGCCG", "PBM E-score": -0.158}
{"sequence": "ACTAGACA", "PBM E-score": 0.00326}
{"sequence": "CGTAGATC", "PBM E-score": 0.0235}
{"sequence": "ATCTAATA", "PBM E-score": 0.0563}
{"sequence": "CCCCATCA", "PBM E-score": 0.106}
{"sequence": "CAGCTATC", "PBM E-score": -0.199}
{"sequence": "CGTCCTAG", "PBM E-score": -0.0716}
{"sequence": "AAAGACTA", "PBM E-score": 0.0494}
{"sequence": "TATTGTGA", "PBM E-score": 0.113}
{"sequence": "AGCTTCGC", "PBM E-score": -0.238}
{"sequence": "CAAGGGAG", "PBM E-score": -0.0603}
{"sequence": "AAGCCGGT", "PBM E-score": 0.0896}
{"sequence": "GCGGGAGC", "PBM E-score": -0.108}
{"sequence": "ATGTATGC", "PBM E-score": -0.00107}
{"sequence": "CCGTACGC", "PBM E-score": -0.148}
{"sequence": "ATCCCCAT", "PBM E-score": 0.115}
{"sequence": "CTTTCCTC", "PBM E-score": -0.157}
{"sequence": "GCGACCCA", "PBM E-score": 0.0675}
{"sequence": "AATCCTAT", "PBM E-score": 0.057}
{"sequence": "CCAGGTTC", "PBM E-score": -0.111}
{"sequence": "CCCAATCC", "PBM E-score": 0.00699}
{"sequence": "CCATCAGC", "PBM E-score": -0.133}
{"sequence": "GGAGACAA", "PBM E-score": 0.0365}
{"sequence": "CAAAGGTG", "PBM E-score": 0.141}
{"sequence": "GGCCAGCA", "PBM E-score": -0.148}
{"sequence": "CCCCCCGC", "PBM E-score": -0.154}
{"sequence": "GGCAGGCC", "PBM E-score": -0.305}
{"sequence": "GCTGTGCA", "PBM E-score": -0.194}
{"sequence": "AGAATAGG", "PBM E-score": 0.0724}
{"sequence": "AAAACGAC", "PBM E-score": 0.0623}
{"sequence": "ATGCAGCG", "PBM E-score": -0.042}
{"sequence": "ATGATCCG", "PBM E-score": 0.0627}
{"sequence": "AGTGGTAC", "PBM E-score": -0.149}
{"sequence": "CCTGCCAG", "PBM E-score": -0.19}
{"sequence": "ACGTTCCG", "PBM E-score": -0.00647}
{"sequence": "GTTCCGGA", "PBM E-score": -0.0664}
{"sequence": "AGAGGATA", "PBM E-score": -0.0799}
{"sequence": "GAATTTCC", "PBM E-score": 0.235}
{"sequence": "ATCAGGCC", "PBM E-score": -0.0451}
{"sequence": "GAGCGCAC", "PBM E-score": -0.253}
{"sequence": "GTCATATA", "PBM E-score": 0.176}
{"sequence": "CGTATACG", "PBM E-score": -0.0983}
{"sequence": "AACTAGAC", "PBM E-score": 0.16}
{"sequence": "AGCTCGAG", "PBM E-score": -0.0355}
{"sequence": "AAGTCGGA", "PBM E-score": -0.0725}
{"sequence": "AATCAGAT", "PBM E-score": -0.172}
{"sequence": "TGCCGCCA", "PBM E-score": -0.121}
{"sequence": "GAAGGAAC", "PBM E-score": -0.0697}
{"sequence": "GTGAACTA", "PBM E-score": -0.0279}
{"sequence": "CTCTCGAA", "PBM E-score": 0.0296}
{"sequence": "AAAAATAC", "PBM E-score": 0.25}
{"sequence": "ACAAACTC", "PBM E-score": 0.136}
{"sequence": "ACCTACGG", "PBM E-score": -0.38}
{"sequence": "CGGAAGAG", "PBM E-score": -0.133}
{"sequence": "GGATATGA", "PBM E-score": 0.127}
{"sequence": "AAGAGTTG", "PBM E-score": -0.149}
{"sequence": "AGTATGCA", "PBM E-score": -0.191}
{"sequence": "GCGGACAA", "PBM E-score": 0.106}
{"sequence": "CTCTACCA", "PBM E-score": -0.0377}
{"sequence": "AGTAGTGA", "PBM E-score": -0.0994}
{"sequence": "AGAGGGAT", "PBM E-score": -0.0268}
{"sequence": "AGGGAGGG", "PBM E-score": 0.305}
{"sequence": "GGCTATCA", "PBM E-score": -0.0607}
{"sequence": "CACTCGAA", "PBM E-score": -0.0764}
{"sequence": "GTTCCAAC", "PBM E-score": 0.202}
{"sequence": "ACTCGCTG", "PBM E-score": -0.0227}
{"sequence": "ACCTCAGG", "PBM E-score": -0.154}
{"sequence": "ACCAATCG", "PBM E-score": 0.12}
{"sequence": "AGAATGAC", "PBM E-score": -0.00728}
{"sequence": "CACCCGGC", "PBM E-score": -0.299}
{"sequence": "GTCCGGAC", "PBM E-score": 0.0923}
{"sequence": "CTCGCCAG", "PBM E-score": -0.15}
{"sequence": "AAGTGAAT", "PBM E-score": 0.0898}
{"sequence": "CAGTCTTC", "PBM E-score": -0.0828}
{"sequence": "TAGTTACA", "PBM E-score": 0.0123}
{"sequence": "CAGAGGCG", "PBM E-score": -0.109}
{"sequence": "ATAAAGGA", "PBM E-score": -0.0629}
{"sequence": "GTAGCTGA", "PBM E-score": -0.127}
{"sequence": "CGAAGGTA", "PBM E-score": 0.00911}
{"sequence": "GCACAGAC", "PBM E-score": 0.00035}
{"sequence": "ACATTTGG", "PBM E-score": 0.115}
{"sequence": "CCCCGTCG", "PBM E-score": -0.0224}
{"sequence": "AGACACAT", "PBM E-score": -0.0224}
